These are yes or no findings as the source states them, for the method shown. Binding seen in cells or lysates may run through a third protein. Sequences can lack the tags named with a protein.
Columns and labels:
Test in all cases: co-IP; anti-Flag (M2) on Dynabeads Protein G, 1–2 h at 4°C; lysis in 50 mM HEPES pH 7.5, 150 mM NaCl, 1 mM EDTA, NP-40; washes with 0.2% NP-40; blot for HA; cells in YPD, YPL, SD or SL medium; wild-type or mkt1∆ background; CEN.PK and S288C
[1] = target: T1, Pbp1Δ299-570 (Flag-tagged) (S. cerevisiae) (UniProt P53297)
T1 sequence: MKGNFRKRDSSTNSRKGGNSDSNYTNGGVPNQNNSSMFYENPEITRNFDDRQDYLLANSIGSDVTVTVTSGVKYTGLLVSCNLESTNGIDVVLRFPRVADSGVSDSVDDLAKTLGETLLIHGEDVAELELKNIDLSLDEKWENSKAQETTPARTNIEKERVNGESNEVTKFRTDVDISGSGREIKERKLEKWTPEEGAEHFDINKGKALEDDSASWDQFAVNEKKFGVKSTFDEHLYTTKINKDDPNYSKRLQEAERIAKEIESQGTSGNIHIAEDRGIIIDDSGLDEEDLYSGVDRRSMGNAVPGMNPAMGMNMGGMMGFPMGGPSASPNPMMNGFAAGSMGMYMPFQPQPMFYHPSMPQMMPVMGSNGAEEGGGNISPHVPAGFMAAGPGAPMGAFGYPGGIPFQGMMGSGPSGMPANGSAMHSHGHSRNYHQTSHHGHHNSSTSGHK

[2] = target: T2, Pbp1Δ491-513 (Flag-tagged) (S. cerevisiae) (UniProt P53297)
T2 sequence: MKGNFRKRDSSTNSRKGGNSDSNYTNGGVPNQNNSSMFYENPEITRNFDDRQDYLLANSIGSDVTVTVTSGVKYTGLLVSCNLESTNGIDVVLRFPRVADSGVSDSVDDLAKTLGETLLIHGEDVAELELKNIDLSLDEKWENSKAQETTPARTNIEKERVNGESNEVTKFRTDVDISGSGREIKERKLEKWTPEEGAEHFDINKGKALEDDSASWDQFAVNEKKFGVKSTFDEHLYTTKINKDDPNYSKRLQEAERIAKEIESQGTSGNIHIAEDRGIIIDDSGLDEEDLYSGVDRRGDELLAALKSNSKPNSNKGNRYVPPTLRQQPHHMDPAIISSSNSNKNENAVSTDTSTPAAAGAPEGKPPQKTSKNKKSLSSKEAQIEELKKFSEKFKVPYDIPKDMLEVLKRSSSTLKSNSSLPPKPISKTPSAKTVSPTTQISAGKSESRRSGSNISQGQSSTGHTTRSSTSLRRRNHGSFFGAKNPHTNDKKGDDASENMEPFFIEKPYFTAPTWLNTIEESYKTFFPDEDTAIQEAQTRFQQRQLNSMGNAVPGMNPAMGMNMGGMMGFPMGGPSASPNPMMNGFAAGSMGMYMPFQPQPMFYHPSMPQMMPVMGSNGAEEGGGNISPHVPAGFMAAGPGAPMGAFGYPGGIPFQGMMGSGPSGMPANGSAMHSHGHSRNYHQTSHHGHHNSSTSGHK

[3] = target: T3, Pbp1Δ500-514 (Flag-tagged) (S. cerevisiae) (UniProt P53297)
T3 sequence: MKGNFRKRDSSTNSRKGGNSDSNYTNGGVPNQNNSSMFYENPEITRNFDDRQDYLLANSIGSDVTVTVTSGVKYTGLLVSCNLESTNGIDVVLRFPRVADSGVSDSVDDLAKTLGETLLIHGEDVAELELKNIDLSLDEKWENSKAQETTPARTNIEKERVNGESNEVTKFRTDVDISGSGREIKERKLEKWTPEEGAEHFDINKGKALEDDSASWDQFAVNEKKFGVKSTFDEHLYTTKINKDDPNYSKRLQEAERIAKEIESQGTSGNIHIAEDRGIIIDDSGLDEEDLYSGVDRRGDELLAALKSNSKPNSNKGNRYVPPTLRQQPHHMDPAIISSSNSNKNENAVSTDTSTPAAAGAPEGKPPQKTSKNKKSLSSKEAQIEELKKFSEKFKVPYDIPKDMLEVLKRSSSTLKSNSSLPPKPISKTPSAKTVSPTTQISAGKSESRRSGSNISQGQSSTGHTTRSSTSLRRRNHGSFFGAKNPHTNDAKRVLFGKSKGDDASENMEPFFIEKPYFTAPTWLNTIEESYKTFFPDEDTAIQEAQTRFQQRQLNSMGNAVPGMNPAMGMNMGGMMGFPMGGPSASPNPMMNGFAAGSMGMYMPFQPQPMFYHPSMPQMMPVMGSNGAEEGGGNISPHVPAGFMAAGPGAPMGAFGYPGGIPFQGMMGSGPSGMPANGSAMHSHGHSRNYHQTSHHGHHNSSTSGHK

Measured: binding

B1: Mkt1-HA (protein, UniProt P40850 1-830)
chain: MAIKSLESFLFERGLVGSYAIEALNNCTLGIDVNHYVSRLLTNKREQYLDAIGGFPTSLKMYLESDLKIFKDFNITPIFVFNGGLTYNQLEASGHFTAASASASISSTTTSSSGTNATTRSNTESVLLQRSRGWTQWNNLISSNQNSYIDQPIQPQEPFRHNTTIDSKAYQNDLIAYFIEHGYMYQVAPYSSWFQLAYLLNSAYIDAIYGPTDCLMLDCVDRFILGMEFPNKEFRFIDRSRVMKDLGCTHEEFIDIAMAVGNDLQPTTLPPLQIYPVPQLFDIALEMVLNTGTNFYAYQLSTTLQNDSKENIQNYQRGISALRYMPVLKDTGKVELFVQEIVVSEEDSEKNNKDGKKSNLSSPSSASSSASPATTVTKNASEKLTYEKSSTKEVRKPRDIPNDVHDFIGQMLPHEYYFYRSIGLVTGKLFDAIVTGVYPEEPPLGGGSSTSYRKLVSKSVEIFKNKEINLLTQPINRYYQIKQIKQVKWYAANEPTTLTNRMSPSMFETINHLIVKTETSDEKEFSISEFITTINGSSNMAKDFISEKVIFPNSVPIESKLNSPFNLLSTNFLRLLVLLEFFTFDFKEKLLEPTRWGEVFLKLNELNIDSKYHESVIIFLVFLKCDVLKLDEEVQPPAPSALSQATLRSYPEESLYVLLITRVLTLFQVDQKPSNYHGPIDKKTLIFRDHLSFIKENLNELFEAVLISSLTSGEFNRLSLDNFGWARKIVRYLPFKLDSPNTIMAMMWEFFLQKYLHNGNAKNDALSLVATEFNTYKSTPNLDEQFVESHRFLLEISKVMQELNAAKLIDENVFKLFTKAVEFTTTALSS
no binding: [1] | [2] | [3]

— paper PMC12345631
